Here are results for two molecules from patent publication US20210170043A1, “DC-SIGN ANTIBODY CONJUGATES COMPRISING STING AGONISTS” (NOVARTIS AG, priority 2018, published 2021).

This assay addresses T1, human L-SIGN (Homo sapiens, UniProt Q9H2X3).
T1 construct: expressed in transfected cells; host or cells: K562, retroviral transduction
T1 sequence (Q9H2X3 1-399): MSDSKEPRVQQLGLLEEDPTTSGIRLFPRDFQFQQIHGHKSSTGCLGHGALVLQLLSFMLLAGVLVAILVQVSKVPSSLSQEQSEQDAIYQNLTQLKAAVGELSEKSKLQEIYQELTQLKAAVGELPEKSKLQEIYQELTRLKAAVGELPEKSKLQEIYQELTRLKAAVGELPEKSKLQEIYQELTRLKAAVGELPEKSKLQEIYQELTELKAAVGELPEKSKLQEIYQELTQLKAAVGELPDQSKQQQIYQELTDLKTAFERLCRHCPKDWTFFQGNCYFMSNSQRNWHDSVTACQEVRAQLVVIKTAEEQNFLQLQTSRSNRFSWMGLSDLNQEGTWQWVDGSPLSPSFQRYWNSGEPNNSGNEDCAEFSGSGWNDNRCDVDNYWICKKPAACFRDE
Kind of assay: FACS binding to K562 cells expressing human L-SIGN (selectivity). The note with it: FACS MFI. As to the method: The affinity of various antibodies and ADCs to DC-SIGN and its species orthologues was determined using FACS. Purified IgGs were titrated to determine EC50 values for binding to cell surface expressed DC-SIGN.
For this purpose, human DC-SIGN expressing or cynomolgus monkey DC-SIGN expressing stable CHO cell lines or K562 expressing DC-SIGN or K562 expressing L-SIGN cell lines were checked for density and viability using VICELL (Beckman Coulter), and washed once with 4° C. PBS. Cells were stained with DAPI (0.5 ug/mL) diluted in PBS for 30 min on ice. Cells were diluted into 4° C. FACS buffer (PBS, 10 mM EDTA, 2% FBS). 125 μl of cells were seeded (10,000 cells/well) into 96-well v-bottom plates (Nunc cat#442587) and centrifuged for 4 min at 1500 rpm at 4° C. Supernatant was removed. […] After the final wash, cells were resuspended in Fixative Buffer (Biolegend, 420801) and 90 μl of FACS buffer followed by readout on the flow cytometry machine (BD LSRFortessa Cell Analyzer; Cat #647177). Geometric Mean fluorescence intensity (MFI) of live, single cells was calculated in Flowjo 10.4.2 and exported into Graphpad Prism7 for EC50 determination.
Selectivity was assessed by measuring apparent binding affinities to isogenic cell pairs engineered to overexpress DC-SIGN as well as cell lines expressing DC-SIGN paralog L-SIGN.
Background: A flow cytometer gives signals particle by particle.

B1: 906C18: anti-DC-SIGN monoclonal antibody from hybridoma of Ablexis Alivamab mice (antibody)
heavy: EVQLVESGGGLVQPGGSLRLSCAASGFTFNNYWMNWVRQAPGKGLEWVANIRQDGSEKYYVDSVKGRFTISRDNAKNSLFLQMNSLRAEDTAVYYCARERAYCSTTSCPDYSNDYWGQGTLVTVSSASTKGPSVFPLAPSSKSTSGGTAALGCLVKDYFPCPVTVSWNSGALTSGVHTFPAVLQSSGLYSLSSVVTVPSSSLGTQTYICNVNHKPSNTKVDKRVEPKSCDKTHTCPPCPAPELLGGPSVFLFPPKPKDTLMISRTPEVTCVVVAVSHEDPEVKFNWYVDGVEVHNAKTKPREEQYNSTYRVVSVLTVLHQDWLNGKEYKCKVSNKALAAPIEKTISKAKGQPREPQVYTLPPSREEMTKNQVSLTCLVKGFYPCDIAVEWESNGQPENNYKTTPPVLDSDGSFFLYSKLTVDKSRWQQGNVFSCSVMHEALHNHYTQKSLSLSPGK
light: EIVMTQSPATLSVSPGERATLSCRASQTINNNLAWFQQKPGQTPRLLIYGASTGATGIPARFSGSGSGTEFTLTISSLQSEDFAVYYCQQYNNWPRGLTFGGGTKVEIKRTVAAPSVFIFPPSDEQLKSGTASVVCLLNNFYPREAKVQWKVDNALQSGNSQESVTEQDSKDSTYSLSSTLTLSKADYEKHKVYACEVTHQGLSSPVTKSFNRGEC
Take B1: the “human L-SIGN K562 EC50” value was over 10 µg/mL.

B2: 550 E03 Parental: anti-DC-SIGN monoclonal antibody from hybridoma of Ablexis Alivamab mice (antibody)
heavy: QVTLRESGPALVKPTQTLTLTCTFSGFSLSTSGMSVSWIRQPPGKALEWLALIDWDDDKYYSTSLKTRLTISKDTSKNQVVLTMTNMDPVDTATYYCARMALRHAFDAWGQGTMVTVSSASTKGPSVFPLAPSSKSTSGGTAALGCLVKDYFPCPVTVSWNSGALTSGVHTFPAVLQSSGLYSLSSVVTVPSSSLGTQTYICNVNHKPSNTKVDKRVEPKSCDKTHTCPPCPAPELLGGPSVFLFPPKPKDTLMISRTPEVTCVVVAVSHEDPEVKFNWYVDGVEVHNAKTKPREEQYNSTYRVVSVLTVLHQDWLNGKEYKCKVSNKALAAPIEKTISKAKGQPREPQVYTLPPSREEMTKNQVSLTCLVKGFYPCDIAVEWESNGQPENNYKTTPPVLDSDGSFFLYSKLTVDKSRWQQGNVFSCSVMHEALHNHYTQKSLSLSPGK
light: QSVLTQPPSVSGAPGQRVTISCTGSSSNIGAGYDVHWYQQLPGTAPKLLIYVNSNRPSGVPDRFSGSKSGTSASLAITGLQAEDEADYYCQSYDSSLSGWVFGGGTKLTVLGQPKAAPSVTLFPPSSEELQANKATLVCLISDFYPGAVTVAWKADSSPVKAGVETTTPSKQSNNKYAASSYLSLTPEQWKSHRSYSCQVTHEGSTVEKTVAPTECS
As for B2, the “human L-SIGN K562 EC50” value is over 10 µg/mL.
